PubChem BioAssay (NCATS)
This list was built around the results that the source calls inconclusive (neither active nor inactive); the mix of calls is not that of the screen. For some of these results: Potencies of inconclusive entries are doubtful fits and often do not repeat. For some of these results: A note “side channel” means that the fit belongs to a control or component signal, not to the main read-out. Calls of active or inactive are those of the source. Unless noted, the call rests on the fitted dose curve.

What was measured:
[1] = target: Estrogen receptor (Homo sapiens) (UniProt P03372); test: qHTS assay for small molecule antagonists of estrogen receptor alpha signaling (AID 588513; active means well fitted curve in the direction sought with a large enough effect in the signal ratio, with a control signal flat, not every such curve was filed as active; inconclusive means small, poorly fitted or top-dose-only effect, or effect the other way, or a change in a side signal; inactive means no such curve, though single readings can be large or run the other way; the % refers to the signal ratio; further: potency means the concentration at half of the fitted maximal effect); settings: ER-alpha-UAS-bla HEK293, beta-lactamase ratio, antagonist mode; activity, negative = inhibition: at 76.9 µM (top of the series) unless noted
How it was run: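 ER-alpha-UAS-bla GripTite HEK 293 cells in 2% charcoal/dextran-treated FBS medium; compounds titrated (1:2, duplicate), then stimulated with 0.5 nM 17-beta-estradiol for 18 h at 37C. CCF4 beta-lactamase fluorescence; Hill-fit IC50 and efficacy.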

[2] = target: Glucocorticoid receptor (Homo sapiens) (UniProt P04150); test: qHTS assay for small molecule antagonists of glucocorticoid receptor signaling (AID 588533; active means well fitted inhibition curve with a large enough effect in the signal ratio, with a control signal flat, not every such curve was filed as active; inconclusive means small, poorly fitted or top-dose-only effect, or effect the other way, or a change in a side signal; the % refers to the signal ratio;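 further: cells stimulated with 2 nM dexamethasone as agonist; on the % scale 0 is the no-effect control and ±100 the full control effect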); settings: HeLa MMTV-bla, GRE beta-lactamase ratio, antagonist mode, 18 h; activity change, negative = inhibition: at 76.8 µM (top of the series) unless noted
[3] = target: Peroxisome proliferator-activated receptor delta (Homo sapiens) (UniProt Q03181); test: qHTS assay for small molecule antagonists of peroxisome proliferator-activated receptor delta signaling (AID 588535; active means well fitted inhibition curve with a large enough effect in the signal ratio, with a control signal flat, not every such curve was filed as active; inconclusive means small, poorly fitted or top-dose-only effect, or effect the other way, or a change in a side signal; inactive means no such curve, though single readings can be large or run the other way; the % refers to the signal ratio); settings: HEK293T PPARd-UAS-bla, beta-lactamase FRET ratio, 18 h; activity change, negative = inhibition: at 76.7 µM (top of the series) unless noted
How it was run: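 Inhibition of PPAR-delta response element-driven beta-lactamase expression is measured in HEK293T cells exposed to a compound titration series for 18 hrs at 37 C. Half-maximal inhibition comes from Hill equation fitting.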

[4] = target: Thyroid hormone receptor beta (Homo sapiens) (UniProt P10828); test: qHTS assay for small molecule antagonists of thyroid hormone receptor beta signaling (AID 588547; active means well fitted inhibition curve with a large enough effect in the signal ratio, with a control signal flat, not every such curve was filed as active; inconclusive means small, poorly fitted or top-dose-only effect, or effect the other way, or a change in a side signal; the % refers to the signal ratio;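 further: cells stimulated with 0.4 nM T3 agonist during compound exposure; on the % scale 0 is the no-effect control and ±100 the full control effect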); settings: TR-UAS-bla HEK293, beta-lactamase ratio, antagonist mode, 18 h
How it was run: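 TR-UAS-bla GripTite HEK293 cells in 2% charcoal/dextran FBS medium were preincubated 4 h at 37 C, given compound (0.59 nM to 92 uM) plus 0.4 nM T3 (final) for 18 h, then CCF4 for 2 h at RT; Hill fit gave IC50.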

[5] = qHTS assay for small molecule agonists of the antioxidant response element (ARE) signaling pathway (AID 651741; active means well fitted activation curve with a large enough effect in the signal ratio; inconclusive means small, poorly fitted or top-dose-only effect, or effect the other way, or a change in a side signal; the % refers to the signal ratio; further: potency means the concentration at half of the fitted maximal effect; on activation: % of control where 0% means no effect); settings: HepG2 ARE-bla reporter, beta-lactamase FRET ratio, 16 h; activation: at 96 µM (top of the series) unless noted
How it was run: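 Reporter: beta-lactamase under ARE, stably in HepG2. Exposure: 16 h, 37 C, compounds delivered in DMSO by pin tool after 5 h cell preincubation. Readout: FRET substrate fluorescence after 2 h at RT.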

[6] = qHTS assay for small molecule activators of the nuclear factor-kappa B (NF-kB) signaling pathway (AID 651749; active means well fitted activation curve with a large enough effect in the signal ratio; inconclusive means small, poorly fitted or top-dose-only effect, or a change in a side signal; the % refers to the signal ratio; further: potency means the concentration at half of the fitted maximal effect; on activation: % of control where 0% means no effect); settings: NF-kB-bla ME-180 cells, beta-lactamase FRET ratio, 16 h; activation: stronger effect = higher value
How it was run: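 Human ME-180 cervical cells with an NF-kB-bla construct; compounds added via 23 nL pin transfer, DMSO as vehicle; incubation 16 hr. Reporter activity measured by FRET disruption.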

[7] = qHTS assay for small molecule agonists of the antioxidant response element (ARE) signaling pathway measured by Nrf2-dependant transcriptional activity (AID 720636; active means well fitted curve in the direction sought with a large enough effect in the repeat runs; inconclusive means weak or mixed curves; inactive means no such curve, though single readings can be large; an effect the other way counts as inactive or inconclusive;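 further: HepG2 cells with an ARE-driven luciferase reporter; % of control where 0% means no effect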)
How it was run: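 Attachment 6 hr at 37 C, then compound versus DMSO vehicle for 16 hr in ARE-luc HepG2 cells (1% dialyzed FBS); luminescence recorded 30 min after ONE-Glo addition at room temperature.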

[8] = target: Glucocorticoid receptor (Homo sapiens) (UniProt P04150); test: qHTS assay for small molecule agonists of glucocorticoid receptor signaling (AID 588532; active means well fitted curve in the direction sought with a large enough effect in the signal ratio, with a control signal flat; inconclusive means small, poorly fitted or top-dose-only effect, or a change in a side signal; inactive means no such curve, though single readings can be large or run the other way; the % refers to the signal ratio; further: potency means the concentration at half of the fitted maximal effect;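 on activation: 100% = dexamethasone at 0.1 µM and 0% = DMSO only wells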); settings: HeLa MMTV-bla, beta-lactamase ratio, agonist, 18 h; activation: stronger effect = higher value, percent of dexamethasone control, DMSO zero
How it was run: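 Stimulation of a glucocorticoid response element-driven beta-lactamase gene was measured in HeLa cells. Responses were scaled between DMSO basal and 0.1 uM dexamethasone, then fitted for half-maximal stimulation.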

[9] = target: Bile acid receptor (Homo sapiens) (UniProt Q96RI1); test: qHTS assay for small molecule antagonists of farnesoid X receptor signaling (AID 588526); settings: HEK293T FXR-UAS-bla, beta-lactamase ratio, antagonist mode; activity change, negative = inhibition: at 76.7 µM (top of the series); further: potency means the concentration at half of the fitted maximal effect
How it was run: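 Concentration-response titrations were fitted to the Hill equation for half-maximal inhibition and maximal response, with data normalised to 50 uM chenodeoxycholic acid and DMSO control wells. Cells: FXR-UAS-bla HEK293T, dialyzed FBS.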

[10] = target: Peroxisome proliferator-activated receptor gamma (Homo sapiens) (UniProt P37231); test: qHTS assay for small molecule agonists of peroxisome proliferator-activated receptor gamma signaling (AID 588536; active means well fitted curve in the direction sought with a large enough effect in the signal ratio, with a control signal flat, not every such curve was filed as active; inconclusive means small, poorly fitted or top-dose-only effect, or effect the other way, or a change in a side signal; inactive means no such curve, though single readings can be large or run the other way; the % refers to the signal ratio;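 further: 0% = DMSO basal wells and 100% = rosiglitazone at 2 µM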); settings: HEK293 PPARg-UAS-bla, beta-lactamase ratio, 16 h; activation: at 76.7 µM (top of the series), percent of rosiglitazone response, DMSO as zero unless noted
How it was run: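 Compound treatment: 16 h, 37 C, HEK293 GeneBLAzer cells. Detection: CCF4, 2 h RT. Values: Hill-fit EC50, efficacy as % of 2 uM rosiglitazone.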

[11] = target: Peroxisome proliferator-activated receptor gamma (Homo sapiens) (UniProt P37231); test: qHTS assay for small molecule antagonists of peroxisome proliferator-activated receptor gamma signaling (AID 588537; active means well fitted inhibition curve with a large enough effect in the signal ratio, with a control signal flat, not every such curve was filed as active; inconclusive means small, poorly fitted or top-dose-only effect, or effect the other way, or a change in a side signal; the % refers to the signal ratio; further: potency means the concentration at half of the fitted maximal effect;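 further: reporter cells co-stimulated with 50 nM rosiglitazone agonist during compound treatment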; on activity, negative = inhibition: % of control where 0% means no effect); settings: HEK293 PPARg-UAS-bla, beta-lactamase ratio, antagonist mode; activity, negative = inhibition: at 76.8 µM (top of the series)
How it was run: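 Compounds are tested as concentration series for inhibition of rosiglitazone-driven (50 nM) reporter expression in GeneBLAzer PPAR-gamma-UAS-bla HEK293 cells. After 16 h at 37 C, CCF4 substrate is added for 2 h at room temperature and blue/green fluorescence is measured.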

[12] = target: Vitamin D3 receptor (Homo sapiens) (UniProt P11473); test: qHTS assay for small molecule antagonists of vitamin D receptor signaling (AID 588541); settings: HEK293T VDR-UAS-bla, beta-lactamase ratio, antagonist mode; activity change, negative = inhibition: at 76.7 µM (top of the series);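 further: receptor activated by calcitriol during compound treatment; on the % scale 0 is the no-effect control and ±100 the full control effect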
[13] = target: Thyroid hormone receptor beta (Homo sapiens) (UniProt P10828); test: qHTS assay for small molecule agonists of thyroid hormone receptor beta signaling (AID 588545); settings: TR-UAS-bla GripTite HEK 293, beta-lactamase ratio, agonist mode, 18 h; activation: at 76.7 µM, percent of T3 response, DMSO as zero; further: potency means the concentration at half of the fitted maximal effect
How it was run: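 Beta-lactamase reporter activity under TR response element control is measured in HEK 293 cells after 18 hrs compound exposure. Signal is ratiometric CCF4 fluorescence, 460/530 nm.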

[14] = target: Retinoic acid receptor RXR-alpha (Homo sapiens) (UniProt P19793); test: qHTS assay for small molecule antagonists of retinoid X receptor alpha signaling (AID 588546; active means well fitted inhibition curve with a large enough effect in the signal ratio, with a control signal flat, not every such curve was filed as active; inconclusive means small, poorly fitted or top-dose-only effect, or effect the other way, or a change in a side signal; inactive means no such curve, though single readings can be large or run the other way; the % refers to the signal ratio;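 further: cells stimulated with 9-cis-retinoic acid as agonist; on the % scale 0 is the no-effect control and ±100 the full control effect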); settings: HEK293T RXRa-UAS-bla, beta-lactamase ratio, antagonist mode
How it was run: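 Beta-lactamase reporter inhibition, read as CCF4 fluorescence ratio (ex 405, em 460/530 nm) after 2 h at RT. HEK293T UAS-bla cells, 2500/well, were stimulated with 9-cis-RA at 500 or 100 nM final alongside test compound for 18 h at 37 C.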

[15] = target: Retinoic acid receptor RXR-alpha (Homo sapiens) (UniProt P19793); test: qHTS assay for small molecule agonists of retinoid X receptor alpha signaling (AID 588544); settings: HEK293T RXRa-UAS-bla, beta-lactamase reporter, 18 h; activation: at 76.7 µM (top of the series) unless noted;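 further: 0% = DMSO basal wells and 100% = reference agonist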
[16] = Cell Viability - LYMP2-011 (AID 969; active means well fitted curve in the direction sought with a large enough effect; inconclusive means small, poorly fitted or top-dose-only effect, or another doubt; inactive means no such curve, though single readings can be large; an effect the other way counts as inactive or inconclusive;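 further: 0% = DMSO only and full inhibition = 92 µM tetraoctylammonium bromide; nearly all actives have a fitted effect of over 60% in size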)
How it was run: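 In this qHTS cytotoxicity format, compounds are tested across concentrations on human lymphoblastoid cells in complete medium for 24 hours at 37 C. Viability is taken as cellular ATP measured by luciferase luminescence.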

[17] = Cell Viability - LYMP2-013 (AID 970; active means well fitted curve in the direction sought with a large enough effect; inconclusive means small, poorly fitted or top-dose-only effect, or another doubt; inactive means no such curve, though single readings can be large; an effect the other way counts as inactive or inconclusive;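 further: cells exposed to compound for 24 h at 37 °C; 0% = DMSO only and full inhibition = tetraoctylammonium bromide control; nearly all actives have a fitted effect of over 55% in size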)
How it was run: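 Cytotoxicity is scored as a concentration-dependent drop in intracellular ATP in human lymphoblastoid cells after 24 hr compound exposure at 37 C. ATP is quantified by luciferase luminescence, and AC50 values come from Hill-equation modeling.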

[18] = Cell Viability - LYMP2-018 (AID 985; active means well fitted curve in the direction sought with a large enough effect; inconclusive means small, poorly fitted or top-dose-only effect, or another doubt; inactive means no such curve, though single readings can be large; an effect the other way counts as inactive or inconclusive;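 further: plate controls were DMSO only for no effect and tetraoctylammonium bromide at 92 µM for full effect; nearly all actives have a fitted effect of over 50% in size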)
How it was run: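 Seed 2500 lymphoblastoid cells per well, incubate 5 hr at 37 C, add compound and incubate 24 hr at 37 C, add CellTiter-Glo, wait 30 min at room temperature, then read luminescence.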

[19] = qHTS assay to identify small molecules that stimulate interleukin-8 (IL-8) secretion (AID 651758; active means well fitted activation curve with a large enough effect in the signal ratio; inconclusive means small, poorly fitted or top-dose-only effect, or effect the other way, or a change in a side signal; the % refers to the signal ratio; further: 0% is about no effect); settings: HTRF ratio (665/615); activation: at 92.2 µM (top of the series)
How it was run: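 Quantitative HTS in THP-1 monocytic cells at 2000 cells per well, with 16 hrs compound incubation at 37 C. IL-8 in the medium was then quantified by HTRF immunoassay, read after 1-3 hrs at room temperature.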
Tags describe the fitted curve by direction and shape or compound fluorescence and quenching.

UniProt P03372, sequence (P03372 whole entry, looked up): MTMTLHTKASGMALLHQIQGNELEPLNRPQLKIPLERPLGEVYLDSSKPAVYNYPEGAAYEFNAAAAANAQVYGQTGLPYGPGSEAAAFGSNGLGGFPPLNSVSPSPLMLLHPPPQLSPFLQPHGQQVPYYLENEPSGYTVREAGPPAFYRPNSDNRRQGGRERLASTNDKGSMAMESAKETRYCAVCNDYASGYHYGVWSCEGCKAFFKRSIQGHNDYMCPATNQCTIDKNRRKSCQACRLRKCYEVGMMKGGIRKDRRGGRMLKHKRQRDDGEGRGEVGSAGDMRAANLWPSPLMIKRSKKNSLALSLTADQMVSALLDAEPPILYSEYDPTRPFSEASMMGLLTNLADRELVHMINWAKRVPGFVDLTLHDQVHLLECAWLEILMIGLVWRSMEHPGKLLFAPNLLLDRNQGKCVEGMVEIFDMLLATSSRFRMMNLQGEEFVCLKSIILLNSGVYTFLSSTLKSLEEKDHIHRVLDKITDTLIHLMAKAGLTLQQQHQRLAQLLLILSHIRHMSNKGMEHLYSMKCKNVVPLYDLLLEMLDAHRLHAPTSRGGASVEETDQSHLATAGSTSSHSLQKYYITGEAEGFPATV
UniProt P10828, sequence (P10828 whole entry, looked up): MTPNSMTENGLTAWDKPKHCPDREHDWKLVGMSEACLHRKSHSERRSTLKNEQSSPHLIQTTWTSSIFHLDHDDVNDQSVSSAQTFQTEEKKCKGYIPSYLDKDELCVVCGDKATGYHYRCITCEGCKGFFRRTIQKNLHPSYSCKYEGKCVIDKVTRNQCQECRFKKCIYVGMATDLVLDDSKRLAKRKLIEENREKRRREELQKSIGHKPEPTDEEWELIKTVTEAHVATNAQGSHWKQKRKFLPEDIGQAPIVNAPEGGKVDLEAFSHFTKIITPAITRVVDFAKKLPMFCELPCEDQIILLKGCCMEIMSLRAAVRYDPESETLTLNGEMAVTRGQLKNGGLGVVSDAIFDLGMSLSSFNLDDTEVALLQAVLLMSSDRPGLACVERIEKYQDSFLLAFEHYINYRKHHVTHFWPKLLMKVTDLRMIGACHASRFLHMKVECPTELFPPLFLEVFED
UniProt P19793, sequence (P19793 whole entry, looked up): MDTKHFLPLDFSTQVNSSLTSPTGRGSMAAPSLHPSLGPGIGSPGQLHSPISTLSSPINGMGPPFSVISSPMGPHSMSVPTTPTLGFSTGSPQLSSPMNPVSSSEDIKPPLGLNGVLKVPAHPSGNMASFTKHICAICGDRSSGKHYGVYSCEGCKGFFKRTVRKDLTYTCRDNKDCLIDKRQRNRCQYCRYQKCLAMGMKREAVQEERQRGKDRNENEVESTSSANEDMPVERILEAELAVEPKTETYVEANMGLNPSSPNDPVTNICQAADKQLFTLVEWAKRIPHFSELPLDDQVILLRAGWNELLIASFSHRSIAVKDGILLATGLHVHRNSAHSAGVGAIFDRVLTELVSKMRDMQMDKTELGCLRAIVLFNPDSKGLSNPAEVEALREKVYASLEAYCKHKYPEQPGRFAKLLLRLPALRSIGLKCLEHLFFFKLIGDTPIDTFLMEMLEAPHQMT
UniProt Q03181, sequence (Q03181 whole entry, looked up): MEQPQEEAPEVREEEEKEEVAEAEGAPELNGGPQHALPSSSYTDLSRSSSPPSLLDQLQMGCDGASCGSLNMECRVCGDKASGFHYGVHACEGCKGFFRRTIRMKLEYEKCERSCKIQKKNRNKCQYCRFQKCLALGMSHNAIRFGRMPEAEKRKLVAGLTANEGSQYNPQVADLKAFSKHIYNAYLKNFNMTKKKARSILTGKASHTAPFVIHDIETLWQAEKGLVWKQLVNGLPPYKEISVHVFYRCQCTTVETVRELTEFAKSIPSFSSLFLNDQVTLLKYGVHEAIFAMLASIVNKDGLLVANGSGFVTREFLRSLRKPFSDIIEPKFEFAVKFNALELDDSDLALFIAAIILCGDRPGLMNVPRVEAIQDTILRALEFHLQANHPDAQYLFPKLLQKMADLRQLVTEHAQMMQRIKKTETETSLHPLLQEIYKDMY
UniProt P11473, sequence (P11473 whole entry, looked up): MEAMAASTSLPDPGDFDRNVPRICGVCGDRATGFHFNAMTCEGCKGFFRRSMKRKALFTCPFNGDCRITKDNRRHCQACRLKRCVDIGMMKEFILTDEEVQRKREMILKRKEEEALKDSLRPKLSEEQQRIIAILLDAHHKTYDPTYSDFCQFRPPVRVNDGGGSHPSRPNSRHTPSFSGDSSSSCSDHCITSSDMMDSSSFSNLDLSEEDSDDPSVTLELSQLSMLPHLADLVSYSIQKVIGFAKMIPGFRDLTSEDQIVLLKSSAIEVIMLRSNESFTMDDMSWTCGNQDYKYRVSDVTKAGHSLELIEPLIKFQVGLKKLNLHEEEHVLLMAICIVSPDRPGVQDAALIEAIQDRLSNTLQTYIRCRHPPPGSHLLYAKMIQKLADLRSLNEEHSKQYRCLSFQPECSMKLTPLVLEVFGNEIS

O=C(NC(=O)c1c(F)cccc1F)Nc1cc(Cl)c(OC(F)(F)C(F)F)c(Cl)c1
inactive: activity change % (negative = inhibition) [4] -14.9% | Potency [7]
inconclusive: Potency [1] 8.91 µM [activator, full curve, poor fit] | activity change, negative = inhibition [2] 5.95% | activity change, negative = inhibition [3] -24.1% | Potency [5] 13.7 µM [activator, partial curve, poor fit] | activation [6] 9.88%

c1cc2c3c(cccc3c1)CC2
inactive: Potency [1] | activity change % (negative = inhibition) [4] 3.51%
inconclusive: Potency [8] 39.8 µM [side channel, falling, partial curve, poor fit] | Potency [6] 50.1 µM [activator, single point]

COC(=O)/C=C(\C)OP(=O)(OC)OC
inconclusive: Potency [1] 11.2 µM [inhibitor, full curve, poor fit] | activity change, negative = inhibition [9] -25% | activation [10] -9.62% | Potency [11] 31.6 µM [inhibitor, partial curve] | activity change % (negative = inhibition) [4] -16.2%

CC1(C)C(C(=O)OC(C#N)c2cccc(Oc3ccccc3)c2)C1(C)C (stereo not given)
inactive: Potency [12]
inconclusive: activity, negative = inhibition [1] -35.3% | Potency [9] 7.08 µM [side channel, rising, full curve, poor fit] | activation [10] -15.7% | Potency [11] 39.8 µM [inhibitor, partial curve] | Potency [13] 0.0056 µM [side channel, falling, full curve, poor fit] | Potency [5] 30.6 µM [activator, partial curve]

COP(=S)(OC)Oc1ccc([N+](=O)[O-])c(C)c1
inconclusive: activity change, negative = inhibition [3] 11.3% | Potency [5] 68.6 µM [activator, partial curve, poor fit]
inactive: Potency [1] | activation [8] -13.6% | Potency [11] | max response [14] -30.1%

N#CN=C1SCCN1Cc1ccc(Cl)nc1
inconclusive: activity, negative = inhibition [1] -27.1% | activity change, negative = inhibition [2] 21.4%
inactive: Potency [15] | activity change % (negative = inhibition) [4] -1.19% | Potency [5]

Cl/C=C/Cl
inactive: Potency [16] | Potency [17] | Potency [18] | Potency [1] | Potency [2]
inconclusive: activation [19] 10.2%
